A collection of fitness landscapes (doi:10.1016/j.celrep.2020.107928)
The full ranking holds about 81,000 sequences; the median of “one-hybrid fitness for binding parS DNA” is about -0.17, and the highest 2% start at about 0.51. This is one part of the list.

B1: Caulobacter ParB omega fusion; a variant is named by its letters at X, in order, B8GW30 (parent)
chain: MESVVVGEPGMSEGRRGLGRGLSALLGEVDAAPAQAPGEQLGGSREAPIEILQRNPDQPRRTFREEDLEDLSNSIREKGVLQPILVRPSPDTAGEYQIVAGERAWRAAQRAGLKTVPIMVRELDDLAVLEIGIIENVQRADLNVLEEALSYKVLMEKFERTQENIAQTIGKSXSHVANXMRLLXLPDEVQSYLVSGELTAXHARAIAAAADPVALAKQIIEGGLSVRETEALARKAPNLSAGKSKGGRPPRVKDTDTQALESDLSSVLGLDVSIDHRGSTGTLTITYATLEQLDDLCNRLTRGI

Variants of: B1
Assay: one-hybrid fitness for binding parS DNA (scaled: cognate 1, non-cognate 0); higher = stronger binding
Conditions: with parS DNA site
Summary of the method: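 The reporter was HIS3, with the binding site 19 bp from the promoter, in E. coli USO used for bacterial one-hybrid selection of Caulobacter ParB libraries with four specificity codons randomised. Growth was on M9 lacking histidine, with 0.1 mM IPTG and 5 mM 3-AT, for 48 hours at 37°C. Illumina sequencing covered plasmids before and after selection; three replicate libraries were pooled and variants with under 10 reads dropped. A fitness score is the log change in variant-to-wild-type read ratio, rescaled to the cognate and non-cognate references.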

Row | Variant | one-hybrid fitness for binding parS DNA
1 | HAHM | ≤ 0.2
2 | RTYE | ≤ 0.2
3 | KQCG | ≤ 0.2
4 | SLPC | ≤ 0.2
5 | CVQT | ≤ 0.2
6 | HFES | ≤ 0.2
7 | QMGP | ≤ 0.2
8 | PGNV | ≤ 0.2
9 | TEER | ≤ 0.2
10 | NWIS | ≤ 0.2
11 | DMRY | ≤ 0.2
12 | GNRW | ≤ 0.2
13 | RCSH | 0.22
14 | SSSA | ≤ 0.2
15 | TSCE | ≤ 0.2
16 | HFNL | ≤ 0.2
17 | PRHN | ≤ 0.2
18 | DSPL | ≤ 0.2
19 | PCSE | ≤ 0.2
20 | TAEN | ≤ 0.2
21 | IRRR | ≤ 0.2
22 | PHNP | ≤ 0.2
23 | HTSK | ≤ 0.2
24 | ASSG | ≤ 0.2

Row | Variant | one-hybrid fitness for binding parS DNA
25 | TPLC | ≤ 0.2
26 | RSCI | ≤ 0.2
27 | TSPC | ≤ 0.2
28 | RQIL | ≤ 0.2
29 | SLTV | ≤ 0.2
30 | SHQS | ≤ 0.2
31 | RAGQ | ≤ 0.2
32 | GSDG | ≤ 0.2
33 | GDED | ≤ 0.2
34 | LPYY | ≤ 0.2
35 | QEQR | ≤ 0.2
36 | FKIS | ≤ 0.2
37 | FYVS | ≤ 0.2
38 | TTSK | ≤ 0.2
39 | PPTS | ≤ 0.2
40 | WNLC | ≤ 0.2
41 | MTKY | ≤ 0.2
42 | LKWC | ≤ 0.2
43 | EVAV | ≤ 0.2
44 | HMLN | ≤ 0.2
45 | TKRP | ≤ 0.2
46 | NCKN | ≤ 0.2
47 | HVRE | ≤ 0.2
48 | IHTS | ≤ 0.2

Row | Variant | one-hybrid fitness for binding parS DNA
49 | NRTA | ≤ 0.2
50 | WIHS | ≤ 0.2
51 | PQRY | ≤ 0.2
52 | TFVR | ≤ 0.2
53 | PTFQ | ≤ 0.2
54 | ARRV | ≤ 0.2
55 | IPLA | ≤ 0.2
56 | TTPL | ≤ 0.2
57 | YERS | ≤ 0.2
58 | MSRM | ≤ 0.2
59 | TIAF | ≤ 0.2
60 | FVRT | ≤ 0.2
61 | DQPE | ≤ 0.2
62 | LNKN | ≤ 0.2
63 | WHID | ≤ 0.2
64 | VPFY | ≤ 0.2
65 | YLYM | ≤ 0.2
66 | DPMD | ≤ 0.2
67 | RWQC | 0.73
68 | QLRW | ≤ 0.2
69 | RLLQ | ≤ 0.2
70 | ANRM | ≤ 0.2
71 | QQTW | ≤ 0.2
72 | CPFS | ≤ 0.2

Row | Variant | one-hybrid fitness for binding parS DNA
73 | MSMK | ≤ 0.2
74 | FKKR | ≤ 0.2
75 | TQKE | ≤ 0.2
76 | QSQE | ≤ 0.2
77 | GPLS | ≤ 0.2
78 | QSVW | ≤ 0.2
79 | VTLC | ≤ 0.2
80 | MTER | ≤ 0.2
81 | NYMT | ≤ 0.2
82 | GDVG | ≤ 0.2
83 | NKLV | ≤ 0.2
84 | CDIS | ≤ 0.2
85 | QHCR | ≤ 0.2
86 | VSAP | ≤ 0.2
87 | LDLS | ≤ 0.2
88 | KIKS | ≤ 0.2
89 | MREL | ≤ 0.2
90 | EDER | ≤ 0.2
91 | STYS | ≤ 0.2
92 | YGLC | ≤ 0.2
93 | HSKC | ≤ 0.2
94 | QQQY | ≤ 0.2
95 | SHKC | ≤ 0.2
96 | PRTQ | ≤ 0.2

Row | Variant | one-hybrid fitness for binding parS DNA
97 | CPDS | ≤ 0.2
98 | IDAW | ≤ 0.2
99 | GDLC | ≤ 0.2
100 | RCRG | 0.927
101 | KALF | ≤ 0.2
102 | YLAS | ≤ 0.2
103 | CQLA | ≤ 0.2
104 | GRDG | ≤ 0.2
105 | MEAT | ≤ 0.2
106 | TEVC | ≤ 0.2
107 | FHVR | ≤ 0.2
108 | SCLG | ≤ 0.2
109 | ACDT | ≤ 0.2
110 | LKKY | ≤ 0.2
111 | AVPW | ≤ 0.2
112 | VRTN | ≤ 0.2
113 | RQEQ | 0.223
114 | WCVR | ≤ 0.2
115 | RVTA | 0.578
116 | AWNC | ≤ 0.2
117 | QPLP | ≤ 0.2
118 | TEHT | ≤ 0.2
119 | LKHG | ≤ 0.2
120 | LITP | ≤ 0.2

Row | Variant | one-hybrid fitness for binding parS DNA
121 | KHTK | ≤ 0.2
122 | WVLR | ≤ 0.2
123 | SIIR | ≤ 0.2
124 | RYAY | 0.425
125 | DTWT | ≤ 0.2
126 | PTKW | ≤ 0.2
127 | TRYT | ≤ 0.2
128 | QPPA | ≤ 0.2
129 | PHKP | ≤ 0.2
130 | TTPF | ≤ 0.2
131 | YESS | ≤ 0.2
132 | HTSN | ≤ 0.2
133 | CNSF | ≤ 0.2
134 | AFVR | ≤ 0.2
135 | RSRD | ≤ 0.2
136 | NSNT | ≤ 0.2
137 | EIRG | ≤ 0.2
138 | NMLN | ≤ 0.2
139 | WTNL | ≤ 0.2
140 | YRHC | ≤ 0.2
141 | HGPL | ≤ 0.2
142 | QFFT | ≤ 0.2
143 | GRKC | ≤ 0.2
144 | DIPV | ≤ 0.2

Row | Variant | one-hybrid fitness for binding parS DNA
145 | PMDW | ≤ 0.2
146 | GHMS | ≤ 0.2
147 | TENF | ≤ 0.2
148 | RTFC | 0.986
149 | LIYG | ≤ 0.2
150 | YFLT | ≤ 0.2
151 | MKWS | ≤ 0.2
152 | MNFR | ≤ 0.2
153 | QPRF | ≤ 0.2
154 | RSHF | 0.257
155 | QQNA | ≤ 0.2
156 | NNLI | ≤ 0.2
157 | PASY | ≤ 0.2
158 | IHAT | ≤ 0.2
159 | HFNK | ≤ 0.2
160 | RISF | 0.21
161 | SPSI | ≤ 0.2
162 | IHMC | ≤ 0.2
163 | MASF | ≤ 0.2
164 | SAAN | ≤ 0.2
165 | TCKF | ≤ 0.2
166 | RRMA | 0.809
167 | PWLN | ≤ 0.2
168 | RQSG | 0.984

Row | Variant | one-hybrid fitness for binding parS DNA
169 | MALS | ≤ 0.2
170 | CGDA | ≤ 0.2
171 | LRLI | ≤ 0.2
172 | HFSS | ≤ 0.2
173 | LNPW | ≤ 0.2
174 | PSGW | ≤ 0.2
175 | QGWT | ≤ 0.2
176 | HTLD | ≤ 0.2
177 | NESS | ≤ 0.2
178 | VSHF | ≤ 0.2
179 | KLIV | ≤ 0.2
180 | RQYR | ≤ 0.2
181 | WPQG | ≤ 0.2
182 | QRWG | ≤ 0.2
183 | KPGR | ≤ 0.2
184 | PILE | ≤ 0.2
185 | ACLM | ≤ 0.2
186 | MPGR | ≤ 0.2
187 | RKPP | ≤ 0.2
188 | RMVY | 0.438
189 | RDGP | ≤ 0.2
190 | MYEK | ≤ 0.2
191 | APFC | ≤ 0.2
192 | RGQP | ≤ 0.2

Row | Variant | one-hybrid fitness for binding parS DNA
193 | DFSM | ≤ 0.2
194 | PLCR | ≤ 0.2
195 | DLYN | ≤ 0.2
196 | SWRM | ≤ 0.2
197 | AIDI | ≤ 0.2
198 | YSTC | ≤ 0.2
199 | YKLQ | ≤ 0.2
200 | HKVS | ≤ 0.2
201 | CGGS | ≤ 0.2
202 | FPTL | ≤ 0.2
203 | KSTR | ≤ 0.2
204 | GAYS | ≤ 0.2
205 | LIKG | ≤ 0.2
206 | PKNT | ≤ 0.2
207 | DPRH | 0.223
208 | SVPF | ≤ 0.2
209 | RATE | 0.204
210 | EQAI | ≤ 0.2
211 | DGFS | ≤ 0.2
212 | RGIW | ≤ 0.2
213 | CGTD | ≤ 0.2
214 | PQIR | ≤ 0.2
215 | RYIF | ≤ 0.2
216 | PIWN | ≤ 0.2

Row | Variant | one-hybrid fitness for binding parS DNA
217 | SVCT | ≤ 0.2
218 | YQAG | ≤ 0.2
219 | GTAM | ≤ 0.2
220 | WPHR | ≤ 0.2
221 | WQQS | ≤ 0.2
222 | TMRC | ≤ 0.2
223 | ADEG | ≤ 0.2
224 | RKPH | ≤ 0.2
225 | EPHW | ≤ 0.2
226 | AADS | ≤ 0.2
227 | LFRP | ≤ 0.2
228 | YKQT | ≤ 0.2
229 | RFTR | ≤ 0.2
230 | GPTK | ≤ 0.2
231 | RPPN | ≤ 0.2
232 | SRKT | ≤ 0.2
233 | CAKK | ≤ 0.2
234 | VQTS | ≤ 0.2
235 | FGHA | ≤ 0.2
236 | NCLC | ≤ 0.2
237 | RWHH | ≤ 0.2
238 | YDET | ≤ 0.2
239 | RCFE | 0.252
240 | VEWR | ≤ 0.2

Row | Variant | one-hybrid fitness for binding parS DNA
241 | CFIR | ≤ 0.2
242 | PRKK | ≤ 0.2
243 | RWAM | ≤ 0.2
244 | TSVV | ≤ 0.2
245 | TIET | ≤ 0.2
246 | VIAR | ≤ 0.2
247 | KTQI | ≤ 0.2
248 | RYCN | 0.382
249 | CMPI | ≤ 0.2
250 | QEHW | ≤ 0.2
251 | RGLA | 0.259
252 | APDA | ≤ 0.2
253 | HHQG | ≤ 0.2
254 | LVNT | ≤ 0.2
255 | SADF | ≤ 0.2
256 | NRYC | ≤ 0.2
257 | GVSR | ≤ 0.2
258 | WPPG | ≤ 0.2
259 | TKCG | ≤ 0.2
260 | KPSR | ≤ 0.2
261 | QRDE | ≤ 0.2
262 | RHMG | 0.932
263 | KCQT | ≤ 0.2
264 | RWLS | 0.8

Row | Variant | one-hybrid fitness for binding parS DNA
265 | GAPP | ≤ 0.2
266 | YSNE | ≤ 0.2
267 | HDQC | ≤ 0.2
268 | RQKC | 0.926
269 | HAYC | ≤ 0.2
270 | FKNI | ≤ 0.2
271 | RVAW | 0.209
272 | LDEA | ≤ 0.2
273 | ITKF | ≤ 0.2
274 | KACT | ≤ 0.2
275 | PQSV | ≤ 0.2
276 | QCPP | ≤ 0.2
277 | QKNE | ≤ 0.2
278 | LPAL | ≤ 0.2
279 | EGQS | ≤ 0.2
280 | MDIT | ≤ 0.2
281 | IGRS | ≤ 0.2
282 | ARCV | ≤ 0.2
283 | PVTE | ≤ 0.2
284 | WGCR | ≤ 0.2
285 | IPLV | ≤ 0.2
286 | DPVQ | ≤ 0.2
287 | RTWE | ≤ 0.2
288 | VNHF | ≤ 0.2

Row | Variant | one-hybrid fitness for binding parS DNA
289 | DEST | ≤ 0.2
290 | CFNS | ≤ 0.2
291 | QIYF | ≤ 0.2
292 | VSDL | ≤ 0.2
293 | WHLS | ≤ 0.2
294 | EFSR | ≤ 0.2
295 | RNFI | ≤ 0.2
296 | RLRK | ≤ 0.2
297 | WDRC | ≤ 0.2
298 | QPST | ≤ 0.2
299 | HWST | ≤ 0.2
300 | PPGV | ≤ 0.2
301 | FKPN | ≤ 0.2
302 | YLVI | ≤ 0.2
303 | WATN | ≤ 0.2
304 | GAPK | ≤ 0.2
305 | SYPW | ≤ 0.2
306 | TFVV | ≤ 0.2
